Read counts are not given, so values of variants with three or more changes are uncertain.

The results in this text go back to the RNAGym collection of RNA variant scans (doi:10.7554/elife.90254).

Sequences and labels used below:
B1: LINE1-mini (parent)
chain: GGCAGAGCUCAACACAGCGUGGCAAAGUGGCUGUGGCUAGACUGCC

Variants of B1 are the subject of the series. The series can be described thus: self-cleavage, relative activity (ratio to wild type); higher = more cleavage; in vitro, sequencing; the parent is a self-cleaving ribozyme.
As to UGCAGCGCCCAACACAGCGUGGCAAACUGGCUGUGGCUAGGCUGCC, the self-cleavage was found to be 0.05. Then UGCUGAGCUCAAAACAGCGUGGGAAAGUGCCUGUGGCUAGACUGCC, with 0.03; and CGCAGAGCGUAACACAGCAUGGCACAGUGGCUGUGGGUAGACUGCC, with 0.01.

As to UGCUGAGCUCGACACAGCGUGGCAAAGUGGCUGUAGCUAGACUGCC, the self-cleavage was 0.

On to CGCAGAGCUCAACACAGCGAGGCAAAGUGGCUGUGGUUAGACUGCC, for which the self-cleavage is 0.02. Then UGCAGUGCUCAACUCAGCGUGGCAAAGUGGCUGUGGCUAGACUGCC, with 0.18. CGCAGAGCUCAACACAGCGCGACAAAGUGGCUGUGGCUAGACUGCC: the self-cleavage is 0.04. Then CGCAGAGCGCAACACACCGUGGCAACGUGUCUGUGGCUAGACUGCG, with 0.

Consider CGCAGAGCGCAACACAGCGAGGCAUAGUGGCUAUAACUAGACUCCC, for which the self-cleavage was 0. Then UGCCCAGCUCAACACAGCAUGGCAAAGUGGCUGUGGCUAGCCUGCC, with 0.04.

As to UGCCGAGCUCAACACAGCGUGGCAUAGUGGCUGUGGCUAGACUGCA, the self-cleavage turned out to be 0.03.

In the case of CGCAGAGCGCAACACAGCGUGGCAAAAUGGCUGUGGCUAUACUGCC, the self-cleavage is 0.01.

For CGCAGAGCGCAACACAGCGUGGCAAAGUGGCUGUGGCUUGACUGCC, the self-cleavage came to 0.01.

With CGCAGAGCUCAACACAGCGAAGCAUAGUGGCUGUGGCUAGACCGCC, the self-cleavage is 0.03.

On to UGCUGAGCUCAACACAGCGUGGCAAAGUGGCUGUGCCUAGACUGCC, for which the self-cleavage stood at 0.09. Consider UGCCGAGCUCGACACAGCGUGGCAAAGUGGCUGUAGCUAGACUGCC, for which the self-cleavage amounted to 0.07. Then CGCAGAGCUCAACACAGCGUGGCAAAGAGGUUGUGGCUAGGCUGCC, with 0.01; and UGCCGAGCUCAACACAGCGUGGCAAAGGGGCUGUGGCUAGACUGAC, with 0.03. With UGCAGGUCUCUACACCGCGUGGCAAAGUGGCUGUGGCUAGACGGCC, the self-cleavage is 0. The same measure for CGCAGAGCGCAACAUAGCGUGGCAAAGUGCCUGUGGCUAGAGUGCC: 0.01; for CGCAGAGCUCAACACAGCGCGGCAAAAUGUCUGAGGCUAGACUGCC: 0.04. Then UGCCGAGCUCAAUACAGCGUGGCAAAGUGGCUUGGGCUAGACUGCC, with 0.02; and UGCAGUGCUCAACACAGCGUGGCUAAGUGGCUGUGGCUAGACUGCC, with 0.51. Then UGCGGAGCUCAAAACAGCGUGGCAAAUUGGCUGUGGCUAGACUGCC, with 0.04; and UGCAGCGCUCAACACAGCGUGGCAAAGUGGCUGGGGCUAGACUGCC, with 0.02. Take UGCAGCGCUCAACAGCGCGUGGCAAAGUGGCUGUGGCUAGACUGCC: the self-cleavage worked out at 0.04.

As to CGCAGAGCUCAACACAGCGAGGCAAAGUGUCUGUGGCUAGACUGCC, the self-cleavage is 0.03. Then CGCAGAGCCCGACACAGCGUGGCAAAGUGGCUGUGGCUAGACUGCC, with 0.02; and CGCAGAGCACAACACAGCAUGGCAAAGUGUCUAUAGCUAGACUGCA, with 0.04.

As for UGCAGGGCUCGACACAGCGUGGCAAAGUGGCUGUGGCUAGACUGCC, the self-cleavage came to 0.03. Then CGCAGAGCUCAACACAGCGUGGCAAAGUGGCAAUGGCUAGACUGCC, with 0.01. Consider UGCGGAGCUCAACACAGUGUGGCAAAGUGGCUGGGGCUAGACUGCC, for which the self-cleavage is 0.12. Then UGCCGAGCUCAACACAGCGUGGCAAAGUGGCAGUGGCUAGACUGCC, with 0.03; and CGCAGAGCUCAACACAGCGUGGCAAAGCGGCUGUAGCUAGACUGCC, with 0.02.

On to UGCUGAGCUCAACACAGCGUGGCAAAGUGGCUGUGACUCGACUGCC, for which the self-cleavage came to 0.08. Then UGCUGAGCUCAACACAGACUCGCAAACUGGCUGUGGCUAGACUGCC, with 0.04; and CGCAGAGCUCAACACAGCGUGGCAAAGUGGCAGUGGCUAUACUGCC, with 0.03; and UGCAGCGCUCAACACAGCCUGGCAAAGUGGCUGUGGUUAGACUGCC, with 0. Take CGCAGAGCUCAACACAGCGUGGCAAAGCGGCUGGGGCUAGACUGCC: the self-cleavage was 0.08. Then UGCAGCGCUCAACAUAGCAUGGCAAAGUGGCUGUGGCAAGACUGCC, with 0.27; and UGCAGGGCUCAACGCAGCGUGGCAAAUUCGCUGUGGCUAGACUGCC, with 0.02; and CGCAGAGCCCAACACAGCGUGGCAAAGUGGCUGUGUCUAGACUGCU, with 0.04. Then CGCAGAGCUCAACACAGCGUGGCAAAGUGGCGGUGGCUAGGCUGCC, with 0.06; and CGCAGAGCUCAACACAGCGUGGCAAAGUGGCGGUGGCUGGACUGCA, with 0. Then UGCGUAGCUCAACACAGCGUGGCAAAGUGGCUGUGGCUAGACUGCC, with 0.26.

Take UGCCGAGCUCAACACAGCGUGGCAUAGUGGCUGUGGCUAGACUGCC: the self-cleavage was 0.

Consider CGCAGAGCCCAACACAGCGUGGCAAAUUGACUGUGGCUAGACUGCC, for which the self-cleavage is 0.02.

Take UGCGGAGCUCAACACAGCGUGGCAAACUGGCUCUGGCCAGACUGCC: the self-cleavage was 0.05. The same measure for UGCUGAACUCAACACAGCGUGGCAUAGAGGCUGUGUCUAGACUGCC: 0.12. As to CGCAGAGCACAACACAGCCUGGCAAAGUGGCUGUUGCUAGACUGCC, the self-cleavage was determined as 0.01. The same measure for CGCAGAGCUCAACACAGCGUGGCAAAGGUGCUGUGGCUAGAGUGCC: 0.01. As to CGCAGAGCUCAACACAGCGUGGCAAAGCGGCUGUGGCUACACAGCC, the self-cleavage was 0. UGCAGCGUUCAAGACAGCGUGGAAAAGUGGCUGUGGCUAGACUGCC: the self-cleavage amounted to 0.34. The same measure for UGCAGGGUUCAACACAGCGUGGCAAAGUGGCUGUGGCUAGACUGCC: 0.12; for CGCAGAGCUCAACACAGCGGGGCAAACUGGCUGUGGCUAGACUGCG: 0.28; for UGCCGAGCACAACACAGCGCGGCAAAGUGGCUGUAGUCAGACCGCC: 0.01.
